Results from PubChem BioAssay AID1508624 (National Center for Advancing Translational Sciences (NCATS), 2021).
Out of some 48,000 compounds screened, about 120 (0.25%) were called active. About 4% were inconclusive and are not listed. Calls come from the whole dose curve; as a rule, active = well fitted activation curve with a large enough effect; inconclusive = small, poorly fitted or top-dose-only effect, or another doubt; inactive = no such curve, though single readings can be large or run the other way. Some of the results follow.

Assay: Primary qHTS for Identification of Small Molecule Activators of Huntingtin-Antisense Promoter Activity; note: nearly all actives have a fitted effect of over 55% in size
Conditions: HEK293 HTT-AS promoter firefly luciferase reporter, 24 h; series mostly up to 57.5 µM; activity change, positive = activation: at the top concentration
Method in brief: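 HEK293 luciferase promoter-reporter cells (2,500/well) plated 24 h, then compounds added at up to 57.5 uM final for 24 h at 37 °C. Firefly luminescence by Dual-Glo, normalized to vehicle (0%) and zero RLU (-100%).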

Row | SMILES | activity change, positive = activation
1 | Cc1ccn2c(=O)c(C(=O)NC(C)c3ccccc3)c(O)nc2c1 (configuration not stated) | inactive: -2.84%
2 | CCOc1ccccc1CNC(=O)c1cccn1-c1nnc(N2CCCCC2)s1 | inactive: -9.04%
3 | COc1ccccc1N1CCN(C(=O)c2cc(-c3ccccc3O)on2)CC1 | inactive: 9.72% [at 11.5 µM, percent change from vehicle, -100% = no light]
4 | N#Cc1cccc(NC(=O)c2cc3c(s2)-c2ccc(Cl)cc2SC3)c1 | inactive: -46.1%
5 | Nc1ccc2cc3ccc(N)cc3nc2c1 | inactive: -44%
6 | CCOc1ccc(C(=O)Nc2cc(-c3nc4ccccc4s3)ccc2OC)cc1 | inactive: -26.6%
7 | CCOc1ccc(S(=O)(=O)c2cn(Cc3cc(C)ccc3C)c3ccc(OCC)cc3c2=O)cc1 | inactive: -16.1%
8 | CCOC(=O)Cn1c(=O)oc2cc(S(=O)(=O)N3CCN(c4ccc(C(C)=O)cc4)CC3)ccc21 | inactive: -28.1%
9 | COc1cccc(Nc2nc3cc(Cl)c(Cl)cc3nc2-n2nc(C)cc2C)c1 | inactive: -11.9%
10 | COc1ccc(NC(=O)Cn2nc(C)c3nn(-c4ccc(Cl)cc4)c(C)c3c2=O)cc1 | inactive: -26.4%
11 | CCCOC(=O)c1ccc(Cn2nnc3sc4c(c3c2=O)CCC(C)C4)cc1 (configuration not stated) | inactive: -23.3%
12 | CCOc1ccc(NC(=O)c2cc(S(=O)(=O)N3CCOCC3)ccc2F)cc1 | inactive: -17.3%
13 | COc1ccccc1CNC(=O)c1cnc(N2CCCC2)nc1C | inactive: -7.44%
14 | CC1CCN(c2oc(/C=C/c3ccc(F)cc3)nc2C#N)CC1 | inactive: -5.3%
15 | CCc1c(C)sc2c1CCN(C(=O)Nc1ccc(F)c(Cl)c1)C2c1ccc(F)cc1 (configuration not stated) | inactive: -27.9%
16 | CCOc1ccc(-c2nc(Cn3c(=O)cc(C)c4c(C)nn(-c5ccc(C)cc5)c43)c(C)o2)cc1 | inactive: 1.36%
17 | COc1ccccc1NC(=O)C1=C(C)Nc2nc(SCc3ccccc3)nn2C1c1cccnc1 (configuration not stated) | inactive: -17.6%
18 | O=C(Nc1ccccc1)C1CCN(S(=O)(=O)c2ccc3[nH]c4c(c3c2)CCCCC4)CC1 | inactive: -32.5%
19 | COc1ccc(CCNC(=O)CCn2c(=O)c3ccccc3n(CC(=O)Nc3ccc(C)cc3C)c2=O)cc1OC | inactive: -7.07%
20 | Cc1ccc(NC(c2ccc(Cl)cc2)c2nnc(-c3cccc(F)c3)o2)cc1C (configuration not stated) | inactive: 5.25%
21 | COC(=O)c1ccc(NC(=O)CN2C(=O)c3cccc4cccc2c34)cc1 | inactive: 5.29% [at 11.5 µM, percent change from vehicle, -100% = no light]
22 | COC(=O)CCNC(=O)N1CCN(c2nnc(C)c3c(C)n(-c4ccc(Cl)cc4)nc23)CC1 | inactive: -1.13%
23 | CCN(CCCNC(=O)c1cc(Nc2ccccc2OC)nc2ccccc12)c1cccc(C)c1 | inactive: -24.9%

Row | SMILES | activity change, positive = activation
24 | COc1ccc(OC)c(CCNC(=O)c2c3c(nc4ccccc24)C(=O)N(C2CCCCC2)C3)c1 | inactive: -21.7%
25 | COc1ccc(-c2noc(C3CC(=O)N(c4ccccc4)C3)n2)c(OC)c1 (configuration not stated) | inactive: 2.23%
26 | O=C(CSc1nc2c([nH]c3ccccc32)c(=O)n1-c1ccc(Cl)cc1)N1CCCC1 | inactive: -7.66%
27 | O=S(=O)(NCC(Nc1ccc(Cl)cc1)c1ccccc1)c1ccccc1 (configuration not stated) | inactive: -22.9%
28 | Cc1cc(C)cc(NC(=O)CSc2nnc(-c3cc4occc4n3C)n2-c2ccccc2C)c1 | inactive: -7.88%
29 | O=S(=O)(NCCc1csc2nc(-c3ccccc3)nn12)c1ccc(Cl)s1 | inactive: -26.3%
30 | COc1ccc2c(CNC3CCCCCC3)c(C(=O)O)n(Cc3cccc(F)c3)c2c1 | inactive: -19.4%
31 | CC(NC(CCc1ccccc1)C(=O)O)C(=O)N1C(=O)N(C)CC1C(=O)O (configuration not stated) | inactive: -5.15%
32 | O=S(=O)(O)c1ccc2nc(-c3ccccc3)[nH]c2c1 | inactive: -5.36%
33 | CCN(CC)CCSc1nnc2c3cc(F)ccc3n(C)c2n1 | inactive: -13.6%
34 | COC(=O)c1ccc(OC)c(CN2C(=O)N(c3ccc(C(C)=O)cc3)S(=O)(=O)c3ccccc32)c1 | inactive: -39.7%
35 | CCOC(=O)c1c(C)[nH]c(CCC(=O)Nc2ccc(Cl)cc2C)c1C | inactive: -15.3%
36 | Cc1ccc(CNCc2c(C(=O)O)n(Cc3ccc(C)cc3)c3cc(C)ccc23)cc1 | inactive: -57.7%
37 | COc1ccc(-c2noc(CNS(=O)(=O)c3ccc(Br)cc3)n2)cc1OC | inactive: -29.8%
38 | Cc1ccc(-c2noc(CN(C(=O)COc3cc(C)cc(C)c3C)C(C)C)n2)cc1 | inactive: -23.4%
39 | Cn1c(=O)c2c(c3ccccc31)OC(=O)CC2c1cccc(F)c1 (configuration not stated) | inactive: 3.29%
40 | O=C(Nc1ccc(Cl)cc1)N1CCN(c2ccc3nnc(-c4ccccc4)n3n2)CC1 | inactive: -42.2%
41 | CN(C)C(=O)Nc1ccc(Cl)c(Cl)c1 | inactive: -1.09%
42 | CCOc1ccc(NC(=O)c2cc3c(=O)n(Cc4cccs4)ccc3nc2C)cc1 | inactive: -13.7%
43 | O=C(C1CCC(Cn2c(=O)c3sccc3n(Cc3ccccc3F)c2=O)CC1)N1CCCCC1 (configuration not stated) | inactive: -16.3%
44 | COc1ccccc1N(CC(=O)NCCSCc1cccc(Cl)c1)S(C)(=O)=O | inactive: -25.9%
45 | CCCCNC(=O)C1CCN(S(=O)(=O)c2ccc3c(ccn3CC)c2)CC1 | inactive: -15.7%
46 | CC(C)NC(=O)C1CCN(C(=O)c2cc3sccc3n2Cc2ccc(Cl)cc2)CC1 | inactive: -60.1%

Row | SMILES | activity change, positive = activation
47 | Cc1cc(C)c(NC(=O)c2ncoc2-c2ccco2)c(C)c1 | inactive: -13.5%
48 | CC(=O)N1C[C@H](O)C[C@H]1C(=O)O | inactive: -7.18%
49 | CC(=O)c1ccc(NC(=O)c2ccc(-c3nc(CSc4ccccc4)c(C)o3)cc2)cc1 | inactive: -31.2%
50 | Fc1ccc(-c2noc3ncnc(NCC4CCN(Cc5ccc(Cl)cc5)CC4)c23)cc1 | inactive: -31.3%
51 | COc1cc(NC(=O)c2cc(C)nc3c2c(C)nn3-c2ccccc2Cl)cc(OC)c1 | inactive: -24.3%
52 | CO[C@@]1(NC(=O)CSC[C@@H](N)C(=O)O)C(=O)N2C(C(=O)O)=C(CSc3nnnn3C)CS[C@@H]21 | inactive: -11.6%
53 | Cc1ccc2cc3c(N)nn(C(=O)c4cccc(F)c4)c3nc2c1 | inactive: 11.2%
54 | Cc1cc2nc3c(=O)[nH]c(=O)nc-3n(CC(O)C(O)C(O)CO)c2cc1C (configuration not stated) | inactive: -7.81%
55 | COc1ccc(CCNC(=O)c2cnc3sc(N4CCCC4)nn3c2=O)cc1OC | inactive: -12.6%
56 | CN(C(=O)c1cc2c(s1)-c1ccc(Cl)cc1SC2)c1cccc(C(F)(F)F)c1 | inactive: -1.79%
57 | O=C(CN1C(=O)COc2ccc(S(=O)(=O)N3CCCCC3)cc21)NCc1ccc(Cl)cc1 | inactive: -27.3%
58 | Cc1ccc(CNC(=O)c2nnn(CC(=O)Nc3cc(C)ccc3C)c2N)cc1 | inactive: 0.403%
59 | CSCCC(NS(=O)(=O)c1ccc2c(c1)oc(=O)n2C)C(=O)N1CCN(c2cccc(Cl)c2)CC1 (configuration not stated) | inactive: -27.8%
60 | CCOC(=O)c1cc(-c2ccc(F)cc2)n(CCC(=O)NCCc2ccc(C)cc2)c1C | inactive: -34.3%
61 | Cc1ccc(CN(Cc2ccco2)C(=O)COc2ccc(Cl)cc2)o1 | inactive: -32.7%
62 | CCc1ccccc1NS(=O)(=O)c1ccc(NC(=O)N2CCCC2)cc1 | inactive: 5.07% [at 11.5 µM, percent change from vehicle, -100% = no light]
63 | CCOc1ccc(-c2cc(-c3nc(-c4cc(OC)c(OC)c(OC)c4)no3)[nH]n2)cc1 | inactive: -1.52%
64 | O=C(Nc1ccc2nc(SCC(=O)N3CCCc4ccccc43)sc2c1)c1ccccc1 | inactive: -28.7%
65 | CCOC(=O)c1ccc(NC(=O)Nc2cc3c(cc2N2CCCC2)n(C)c(=O)n3C)cc1 | inactive: -19.5%
66 | Cc1cc(CC(=O)O)n(C)c1C(=O)c1ccc(Cl)cc1 | inactive: -6.19%
67 | COC(=O)c1cc(NC(=O)c2nn(C)c3c2COc2ccccc2-3)cc(C(=O)OC)c1 | inactive: -2.89%
68 | Nc1c(C(=O)Nc2ccc(F)c(F)c2)sc2nc(-c3ccncc3)ccc12 | inactive: 5.54%
69 | COc1cccc(CNC(=O)c2cc(C)nc3c2c(C)nn3-c2cccc(F)c2)c1 | inactive: -14.8%

Row | SMILES | activity change, positive = activation
70 | COc1ccc(S(=O)(=O)Nc2ccc3c(c2)CCCN3S(=O)(=O)c2ccc(C)cc2)cc1F | inactive: -28.8%
71 | COc1ccccc1NC(=O)C1=C(C)Nc2nc(SCc3ccccc3F)nn2C1c1cccs1 (configuration not stated) | inactive: -25.3%
72 | O=C(COCc1cc(-c2ccc3c(c2)OCO3)on1)N1CCN(c2ccccc2)CC1 | inactive: -9.73%
73 | COc1cc(-c2nn(C3CCC(N4CCN(C(C)=O)CC4)CC3)c3ncnc(N)c23)ccc1NC(=O)c1cc2ccccc2n1C (configuration not stated) | inactive: -24.4%
74 | Cc1ccc(S(=O)(=O)NCCc2cn3ccsc3n2)cc1 | inactive: -7.07%
75 | CCC(CC)C(=O)Nc1nc2c(s1)CC(C)CC2 (configuration not stated) | inactive: 6.06% [at 11.5 µM, percent change from vehicle, -100% = no light]
76 | COc1ccc(-n2nnnc2C2CCN(S(=O)(=O)c3ccc(C(C)(C)C)cc3)CC2)cc1 | inactive: -6.45%
77 | NS(=O)(=O)c1cccc2c1C(=O)c1cccc(O)c1C2=O | inactive: -93.9%
78 | Cc1cc(C)cc(NC(=O)Cn2nnc(-c3nc(-c4ccncc4)no3)c2N)c1 | inactive: 0.345%
79 | Cc1cc2c(cc3c(SCc4nc(-c5ccccc5)oc4C)nnc(C)n32)o1 | inactive: -19.9%
80 | Cc1ccc(N2CCN(S(=O)(=O)c3ccc(F)c(C(=O)Nc4ccc(Cl)cc4Cl)c3)CC2C)cc1 (configuration not stated) | inactive: -15.3%
81 | CCn1ccc2c(OCC(=O)Nc3ccccc3C)cccc2c1=O | inactive: -20.9%
82 | CC(C)c1ccc(OCC(=O)N(Cc2ccc(N(C)C)cc2)C2CCS(=O)(=O)C2)cc1 (configuration not stated) | inactive: -11%
83 | C=Cc1ccc(CSc2nc(-c3ccc(C)cc3)nc3c2Cc2c(CO)cnc(C)c2O3)cc1 | inactive: -12.2%
84 | O=C(Nc1cccc(C(=O)OCc2cc(=O)n3c4c(sc3n2)CCCC4)c1)c1ccccc1 | inactive: -5.72%
85 | Cc1cccc(NC(=O)C(NS(=O)(=O)c2ccc3c(c2)oc(=O)n3C)C(C)C)c1 (configuration not stated) | inactive: -12.6%
86 | O=c1c(S(=O)(=O)c2cccc(Cl)c2)cn(Cc2ccccc2)c2cc(N3CCOCC3)c(F)cc12 | inactive: 5.2%
87 | O=C1NC(=O)C(=Cc2ccc(-c3ccc(F)cc3)o2)S1 | inactive: -13.7%
88 | Cc1ccc2nc(-c3cccnc3)c(Nc3ccccc3C)n2c1 | inactive: -21.8%
89 | CCOc1ccc(S(=O)(=O)Nc2nc3ccccc3nc2Nc2ccc(OC)cc2)cc1 | inactive: -18.7%
90 | CCc1ccc(NC(=O)Cn2c(=O)n(Cc3ccco3)c(=O)c3cccnc32)cc1 | inactive: -31.2%
91 | CCCNC(=O)CCSc1nc(-c2ccc3c(c2)OCO3)cc(C(F)(F)F)n1 | inactive: -13.5%
92 | Cc1cc(C)c2nc(N(Cc3cccnc3)C(=O)CCOc3ccccc3)sc2c1 | inactive: -1.42%
